In all, about 390,000 compounds went through this assay and about 55 (0.01%) were called active. Inconclusive means that the source gave no clear call. Such entries were picked first, then a sample of the others. Calls come from the whole dose curve; as a rule, active = well fitted inhibition curve with a large enough effect; inconclusive = small, poorly fitted or top-dose-only effect; inactive = no such curve, though single readings can be large or run the other way. Potencies beside an inconclusive call are fits to weak or partial responses and may not hold up.
These compounds were tested against Thioredoxin reductase 1, cytoplasmic (Rattus norvegicus) (UniProt O89049) (assay: qHTS Assay for Substrates of Mammalian Selenoprotein Thioredoxin Reductase 1 (TrxR1): qHTS). Settings: purified TrxR1 substrate turnover, NADPH consumption readout; series mostly up to 114 µM; activity change, negative = substrate turnover: at the top concentration.
In short: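 Rat TrxR1, dispensed at 90 nM, was prereduced with 400 uM NADPH (final) for 5 min at ~22 deg C, then incubated with compound 15 min before 400 uM selenite. A first-read NADPH fluorescence drop versus no-compound background flagged substrates.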
% is set by controls: 0 for no effect and ±100 for the full control effect; potency is the fitted concentration of half-maximal effect; tags give direction and shape of the fitted curve.
Note: nearly all actives have a fitted effect of over 50% in size.

Chain of UniProt O89049 (O89049 whole entry, looked up): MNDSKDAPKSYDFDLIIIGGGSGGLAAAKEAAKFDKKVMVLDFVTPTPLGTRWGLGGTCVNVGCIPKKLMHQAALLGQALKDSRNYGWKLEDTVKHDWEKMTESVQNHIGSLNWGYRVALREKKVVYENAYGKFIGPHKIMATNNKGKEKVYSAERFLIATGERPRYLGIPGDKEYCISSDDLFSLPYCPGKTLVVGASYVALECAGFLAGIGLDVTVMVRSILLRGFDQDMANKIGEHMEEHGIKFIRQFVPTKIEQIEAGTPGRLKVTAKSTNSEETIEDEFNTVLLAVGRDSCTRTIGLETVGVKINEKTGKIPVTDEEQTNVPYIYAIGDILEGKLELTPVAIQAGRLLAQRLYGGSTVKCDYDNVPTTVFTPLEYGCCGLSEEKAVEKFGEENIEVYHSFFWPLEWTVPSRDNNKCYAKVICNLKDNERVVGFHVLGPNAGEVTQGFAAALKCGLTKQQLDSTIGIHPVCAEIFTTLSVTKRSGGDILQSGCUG

SMILES	Potency	activity change, negative = substrate turnover
O=C1CNC(=O)/C1=C/c1ccc(O)cc1	inconclusive: 50.1 µM [inhibitor, partial curve, poor fit]	–
COc1ccc(CNC(=O)C2CCN(S(=O)(=O)c3cccc(-c4noc(C)n4)c3)CC2)cc1	–	inactive: 4.05% [at 57.1 µM]
COCCOC(=O)C1=C(C)NC(C)=C(C(=O)OC/C=C/c2ccccc2)C1c1cccc([N+](=O)[O-])c1 (configuration not stated)	inconclusive: 25.1 µM [inhibitor, partial curve, poor fit]	–
CCn1nc(C(=O)O)c(=O)c2cc3c(cc21)OCO3	inconclusive: 33.6 µM [inhibitor, partial curve, poor fit]	–
COC(=O)c1ccc(CSc2ccc3nnc(-c4ccccc4)n3n2)o1	inconclusive: 89.1 µM [inhibitor, single point]	–
N#CCCN(C(=O)COC(=O)C1CCN(S(=O)(=O)c2ccccc2C(F)(F)F)CC1)c1ccccc1	inconclusive: 89.1 µM [inhibitor, single point]	–
O=[N+]([O-])c1ccc(C=Nc2ccc(Cl)cc2Cl)s1	inconclusive: 79.4 µM [inhibitor, partial curve, poor fit]	–
O=C(Cn1nc(C(=O)O)c2ccccc2c1=O)Nc1cc(S(=O)(=O)N2CCOCC2)ccc1Cl	inconclusive: 89.1 µM [inhibitor, single point]	–
COc1ccc(/C=C(/C#N)c2nc(-c3ccc(Br)cc3)cs2)cc1	inconclusive: 89.1 µM [inhibitor, partial curve, poor fit]	–
Cc1nn(CC(C)C)c(Cl)c1C(=O)N(c1ccc(Cl)cc1F)S(C)(=O)=O	inconclusive: 79.4 µM [inhibitor, partial curve, poor fit]	–
CCOC(=O)C12CC1/C(=N/O)c1ccccc1O2 (configuration not stated)	inconclusive: 42.3 µM [inhibitor, partial curve, poor fit]	–
NC(=N\N=Cc1ccco1)/C(N)=N/N=Cc1ccco1	inconclusive: 89.1 µM [inhibitor, single point]	–
O=C(Cn1ncc2c([nH]c3ccccc32)c1=O)Nc1cccnc1	inconclusive: 39.8 µM [inhibitor, single point]	–
COc1ccc(-n2cc(C(=O)c3ccc4ccccc4c3O)cn2)cc1	inconclusive: 89.1 µM [inhibitor, partial curve, poor fit]	–
Cc1cc(=O)[nH]c(-n2nc(C)c(Oc3ccccc3O)c2C)n1	–	inactive: 11.6% [at 57.1 µM]
COc1cc(/C=C/c2[nH]c(=O)[nH]c(=O)c2[N+](=O)[O-])cc([N+](=O)[O-])c1O	inconclusive: 17.8 µM [inhibitor, partial curve, poor fit]	–
COc1ccc(NC(=O)c2cnc[nH]2)cc1	inconclusive: 89.1 µM [inhibitor, single point]	–
O=C(NCc1ccco1)c1ccc2c(c1)OCCO2	inconclusive: 35.5 µM [inhibitor, partial curve, poor fit]	–
O=C1N/C(=N\S(=O)(=O)Cc2ccccc2)S/C1=C/c1cc([N+](=O)[O-])ccc1O	inconclusive: 56.2 µM [inhibitor, partial curve, poor fit]	–
COc1ccc(CCC(=O)OCC(=O)Nc2sccc2C#N)cc1	–	inactive: 0.826%
O=c1c2ccccc2sn1-c1ccc(F)cc1	–	inactive: -14.9%
Cc1cc(C)cc(NS(=O)(=O)c2ccc3[nH]cc(C(=O)NCc4ccccc4Cl)c(=O)c3c2)c1	–	inactive: -11.2% [at 57.1 µM]
Cn1cccc1/C=C1/SC(=S)N(CC(=O)O)C1=O	inconclusive: 56.2 µM [inhibitor, partial curve, poor fit]	–

SMILES	Potency	activity change, negative = substrate turnover
COc1ccc(N=Nc2nc3ccc(Br)cc3n2C)cc1	inconclusive: 4.47 µM [inhibitor, partial curve, poor fit]	–
COc1ccc(C(=O)NCCn2ccc3ccccc32)cc1	–	inactive: 9.45% [at 57.1 µM]
COc1ccc(CNC(=O)CSc2nnc3c(n2)[nH]c2ccccc23)cc1	–	inactive: 11.1% [at 0.0914 µM]
Cc1cnc(CNC(=O)c2ccc3oc(Cc4ccc(Cl)cc4)nc3c2)cn1	inconclusive: 39.8 µM [inhibitor, partial curve, poor fit]	–
COc1ccccc1OCC(O)CN1CCN(CC(=O)Nc2c(C)cccc2C)CC1 (configuration not stated)	inconclusive: 0.947 µM [inhibitor, full curve, poor fit]	–
COc1cc(/C=C(\C#N)C(=O)Nc2nnc(C(F)(F)F)s2)ccc1OCc1ccc(C(F)(F)F)cc1C(F)(F)F	inconclusive: 17.8 µM [inhibitor, single point]	–
Cc1nnc(NC(=O)/C=C/c2ccco2)s1	inconclusive: 79.4 µM [inhibitor, partial curve, poor fit]	–
O=C(NC1CCCC1)C1CCN(C(=O)c2ccc(Cl)cc2)CC1	inconclusive: 89.1 µM [inhibitor, single point]	–
C=CCOc1ccc(-c2nc3c(c(=O)[nH]c(=O)n3CCCC)n2C)cc1Br	–	inactive: 7.33%
COc1cccc(N=Nc2c(=O)[nH]n3c(=O)cc(C)[nH]c23)c1	inconclusive: 70.8 µM [inhibitor, partial curve, poor fit]	–
COC(=O)C1=C(C)N(CCc2c[nH]c3ccccc23)C(=O)/C1=C\N(C)C	–	inactive: -8.9%
O=c1cc(O)n(-c2ccccc2F)c(=S)[nH]1	–	inactive: 3.49% [at 57.1 µM]
COC(=O)c1ccccc1NC1=C/C(=N\S(=O)(=O)c2ccc(C(=O)O)cc2)c2ccccc2C1=O	inconclusive: 31.6 µM [inhibitor, single point]	–
COCCN(CCOC)Cc1c(O)ccc2c1O/C(=C\c1ccc(C)o1)C2=O	inconclusive: 79.4 µM [inhibitor, partial curve, poor fit]	–
O=C(CNC(=O)c1ccco1)N=Nc1c(O)[nH]c2ccc(Br)cc12	inconclusive: 89.1 µM [inhibitor, partial curve, poor fit]	–
O=C1C=C(NCc2ccccc2)c2ccccc2C1=O	active: 15.8 µM	–
O=C(Nc1ccc(C(=O)O)cc1)/C(=C\C=C\c1ccccc1)NC(=O)c1ccccc1Br	inconclusive: 79.4 µM [inhibitor, partial curve, poor fit]	–
COc1ccc(Cn2c(CNS(=O)(=O)c3ccc(Cl)s3)nc3cccnc32)cc1	–	inactive: -0.627% [at 57.1 µM]
NNc1nncc2ccccc12	inconclusive: 18.9 µM [inhibitor, partial curve, poor fit]	–
O=C(c1ccccc1)N1CCC(c2nc(-c3ccc(S(=O)(=O)N4CCOCC4)cc3)no2)CC1	inconclusive: 14.1 µM [inhibitor, partial curve, poor fit]	–
CN(C)c1ccc(/C=C/c2ccccn2)cc1	inconclusive: 89.1 µM [inhibitor, partial curve, poor fit]	–
COc1ccc(N(Cc2ccccc2)S(=O)(=O)c2cccc(C(=O)Nc3ncccc3C)c2)cc1	–	inactive: -11.9%
Fc1cccc(CNc2ncnc3cc(Cl)ccc23)c1F	–	inactive: 7.3% [at 57.1 µM]

SMILES	Potency	activity change, negative = substrate turnover
CCc1noc(C)c1C(=O)OCC(=O)c1ccccc1OC	inconclusive: 35.5 µM [inhibitor, single point]	–
O=S(=O)(O)c1ccc(N=NNc2ccc(Br)cc2)cc1	–	inactive: 5.41% [at 57.1 µM]
O=C(NCCC(=O)N1CCc2ccccc21)c1ccco1	–	inactive: 4.3%
CCN(CC)CCOC(=O)C1(C2CCCCC2)CCCCC1	inactive	–
CC1CC(C)CN(S(=O)(=O)c2cccc3nonc23)C1 (configuration not stated)	inconclusive: 89.1 µM [inhibitor, single point]	–
CCN1CCN(c2ncnc3c2cnn3-c2ccc(C)c(Cl)c2)CC1	inconclusive: 39.8 µM [inhibitor, single point]	–
CC1CCN(C(=O)COC(=O)/C=C/c2ccc(Br)o2)CC1	–	inactive: -2.9%
CC(C)(C)C(=O)Nc1ccc2c(c1)C(=O)C(=O)c1ccccc1-2	active: 3.16 µM	–
COC(=O)c1sc(NC(=O)c2ccc([N+](=O)[O-])o2)c(C#N)c1C	inconclusive: 35.5 µM [inhibitor, partial curve, poor fit]	–
CC1=C/C(=N\OS(=O)(=O)c2ccccc2)C=CC1=O	inconclusive: 35.5 µM [inhibitor, partial curve, poor fit]	–
CC(OC(=O)c1ccco1)C(=O)Nc1nc(-c2ccccc2)cs1 (configuration not stated)	inconclusive: 89.1 µM [inhibitor, single point]	–
Nc1[nH]c(N=NC(=O)c2ccccc2O)c2ccccc12	–	inactive: -12%
CCCc1nc2c(=O)n(C)c(=O)nc-2n(C)n1	inconclusive: 25.1 µM [inhibitor, single point]	–
COC(=O)C(CC(=O)c1ccc(Br)cc1)n1ccnc1 (configuration not stated)	–	inactive: 0.292%
COc1cc([N+](=O)[O-])cc(/C=N/NC(=O)c2ccc(C)nc2)c1O	inconclusive: 56.2 µM [inhibitor, partial curve, poor fit]	–
Cc1nc(N2CCN(Cc3ccc4c(c3)OCO4)CC2)nc2c1C(=O)CC(c1ccco1)C2 (configuration not stated)	–	inactive: -3.64%
COc1cccc2nc3cc(C)c(C)cc3nc12	inconclusive: 25.1 µM [inhibitor, partial curve, poor fit]	–
COc1ccccc1-n1cnnc1SCC(=O)NCc1cccs1	inconclusive: 39.8 µM [inhibitor, single point]	–
O=C(COc1ccc2ccc(=O)oc2c1)Nc1nccs1	inconclusive: 25.1 µM [inhibitor, single point]	–
C=CCn1c(NC(=O)c2ccccc2Cl)c(C#N)c2nc3ccccc3nc21	inconclusive: 79.4 µM [inhibitor, partial curve, poor fit]	–
CN1CCC(N(C)S(=O)(=O)c2ccc(NC(=O)COc3ccc(Br)cc3Cl)cc2)CC1	inconclusive: 25.1 µM [inhibitor, single point]	–
